Data published in PubChem BioAssay AID686971 (National Center for Advancing Translational Sciences (NCATS), 2013).
Out of some 360,000 compounds screened, about 7,500 (2.1%) were called active. The inconclusive results got no clear call from the source; some entries with a clear call stand among them for comparison. Calls follow the shape of the dose curve; as a rule, active = well fitted cell-killing curve with a large enough effect; inconclusive = small, poorly fitted or top-dose-only effect, or effect the other way, or another doubt; inactive = no such curve, though single readings can be large or run the other way. No potency is given beside an inconclusive call; the fits are too rough.

Assay: qHTS for induction of synthetic lethality in tumor cells producing 2HG: qHTS for the HT-1080-IDH1KD cell line;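 as to activity, negative = toxicity: 0% = DMSO wells and -100% = cell-free medium wells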
Details: HT-1080 IDH1 knockdown viability, ATP luminescence, 48 h; activity, negative = toxicity: at 46.1 µM (top of the series) unless noted
In short: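 Using the IDH1-knockdown HT-1080 line run in the same batch and compound series as the NT line, viability after 48 h at 37 °C was determined by CellTiter-Glo luminescence and expressed as % activity.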
Potency is read from the fitted curve at half-maximal effect; tags tell the direction and shape of the fitted curve.

SMILES	Potency	activity, negative = toxicity
Cc1ccc2[nH]cc(C(=O)CCl)c2c1	active: 20.6 µM	–
O=C(NC(=S)N1CCN(C/C=C/c2ccccc2)CC1)c1ccc(F)cc1	–	inconclusive: -36.5% [cytotoxic]
CC(=O)c1cccc(NC(=O)CSc2ccc(-c3cccnc3)nn2)c1	–	inactive: -18.3%
CC(C)(C)OC(=O)NCCCCCc1nnc(SCc2ccccc2)o1	inconclusive [cytotoxic, single point]	–
O=C/C(=C\Nc1ccccn1)c1nc2ccccc2o1	inconclusive [cytotoxic, single point]	–
CCOC(=O)N1CCC(NC(=O)CCc2c(C)nc3c(c(C)nn3C(C)(C)C)c2C)CC1	inconclusive [cytotoxic, single point]	–
CN(CCc1ccccc1)C(=O)c1ccc(NC(=O)Cc2ccc(NC(=O)C3CCN(C(=O)C4CCCCC4)CC3)cc2)cc1	inconclusive [cytotoxic, single point]	–
COc1cc(NC(=O)c2cccs2)c(OC)cc1NC(=O)CCC(=O)Nc1ccc2ncccc2c1	inconclusive [cytotoxic, full curve]	–
CC(C)C[C@H](N)c1cn([C@@H](CCCCN)C(=O)N2CCNCC2)nn1	active: 1.16 µM	–
CC(/C=N/NC(=O)c1cc(-c2ccc3ccccc3c2)n[nH]1)=C\c1ccco1	inconclusive [cytotoxic, single point]	–
O=C(c1c(F)c(F)c(F)c(F)c1F)N1CCN(c2cccc(C(F)(F)F)c2)CC1	inconclusive [cytotoxic, single point]	–
CC(=O)N1CCN(C(=O)c2cc(-c3ccc(C)o3)nc3ccccc23)CC1	inconclusive [cytotoxic, partial curve]	–
CNC(=O)c1ccsc1NC(=O)c1ccc(Cl)s1	–	inactive: -2.87%
CN1CCC=C(C(=O)N2c3ccccc3Sc3ccc(Cl)cc32)C1	active: 16.4 µM	–
COc1ccc(-c2cc(C(=O)N(C)Cc3ccccc3)c3ccccc3n2)cc1	inconclusive [cytotoxic, single point]	–
O=C(NCC(=O)N(c1cccnc1)C(C(=O)NC1CCCC1)c1cccs1)c1ccco1 (configuration not stated)	–	inactive: 14.9%
CCC1(C)N=C(c2ccc3c(c2)OCO3)CC(c2ccccc2O)N1 (configuration not stated)	inconclusive [cytotoxic, single point]	–
COc1ccc(NC(=O)CN2C(=O)c3cccc4cccc2c34)cc1OC	inconclusive [cytotoxic, single point]	–
CCCCN(CCCC)CC(O)COc1ccccc1C(=O)Nc1ccccc1 (configuration not stated)	inconclusive [cytotoxic, single point]	–
COc1ccccc1-c1nnc(SCC(=O)NCc2ccco2)n1N	–	inactive: 1.65%
CN(C)c1ccc(CNCc2cccnc2)cc1	–	inactive: 8.62%
Cc1cc(C)cc(N2C(=O)CC(Sc3nnnn3-c3ccccc3)C2=O)c1 (configuration not stated)	active: 2.51 µM	–
Cc1cc(C)c(-n2c(SCCS(=O)(=O)c3ccc(F)cc3)n[nH]c2=O)c(C)c1	active: 18.4 µM	–
CCCCCCN1C[C@H](O)[C@@H](n2cc(-c3ccc(F)cc3)nn2)C[C@@H]1c1ccccc1	inconclusive [cytotoxic, single point]	–

SMILES	Potency	activity, negative = toxicity
Cc1cccn2c(=O)c(/C=C(\C#N)C(=O)NC3CCS(=O)(=O)C3)c(Oc3ccc(F)cc3)nc12 (configuration not stated)	inconclusive [cytotoxic, single point]	–
Cc1cccc(C)c1NC(=O)CN(C)C(=O)COc1cccc2c1OC(C)(C)C2	–	inactive: -4.74%
CC(C)Oc1ccc(C(CC(=O)O)c2ccc(F)cc2)cc1 (configuration not stated)	–	inactive: 18.4%
COc1cc(/C=C/C(=O)O)cc(S(=O)(=O)Nc2ccc3nc(SC)sc3c2)c1OC	–	inactive: 4.39%
Cc1ccc(C)c(Cn2c(=O)n(CCCC(=O)NCc3ccco3)c(=O)c3sccc32)c1	active: 9.2 µM	–
Cc1ccc(Nc2ncnc3sc(C)c(C)c23)cc1	–	inactive: -22.9%
O=C(CSc1n[nH]c(-c2ccccc2)n1)c1ccc(O)c(O)c1	inconclusive [cytotoxic, single point]	–
COc1cccc(C2CC(=O)Nc3cc4c(cc32)CCC4)c1 (configuration not stated)	active: 25.9 µM	–
O=C(c1ccc2c(c1)OCCO2)C1CCN(S(=O)(=O)c2ccc(F)cc2)CC1	inconclusive [cytotoxic, partial curve]	–
O=C(Nc1nccs1)c1ccc(COc2ccccc2Br)o1	inconclusive [cytotoxic, single point]	–
O=c1[nH]c(=O)n2c(c1-c1ccccc1)OC(CBr)C2 (configuration not stated)	–	inactive: 4.57%
CC1CN(c2ncnc3c2c(-c2ccccc2)cn3-c2ccc(F)cc2)CC(C)O1 (configuration not stated)	inconclusive [cytotoxic, single point]	–
CCOc1ccc(C(=O)OCC(=O)NCCNC(=O)COC(=O)c2ccc(OCC)cc2)cc1	–	inactive: -1.26%
CCOC(=O)N1CCN(S(=O)(=O)Cc2ccccc2)CC1	–	inactive: 4.87%
O=C(Nc1sc2c(c1C(=O)O)CCC2)c1ccccc1	inconclusive [cytotoxic, single point]	–
OC(c1ccc(F)c(F)c1)c1nc(-c2ccncc2)cs1 (configuration not stated)	inconclusive [cytotoxic, single point]	–
NC(N)=NCc1cccc(I)c1	inconclusive [cytotoxic, partial curve, poor fit]	–
CC1(Cc2cc(Cl)ccc2C(F)(F)F)C(=O)Nc2ccc(OC(F)(F)F)cc21 (configuration not stated)	active: 20.6 µM	–
OC1CCCN(CC(O)COc2ccc(-c3ccccc3)cc2)C1 (configuration not stated)	inconclusive [cytotoxic, partial curve]	–
CCN(CC)CCN(Cc1cc2cc(C)c(C)cc2[nH]c1=O)C(=S)NCc1ccco1	inconclusive [cytotoxic, single point]	–
CCCCS(=O)(=O)N1CCN(S(=O)(=O)c2cccs2)CC1	–	inactive: 15.5%
O=C1NC2CCCCC2C(=O)N1OS(=O)(=O)c1ccccc1 (configuration not stated)	inconclusive [cytotoxic, single point]	–
Cc1cccc2c1-c1sc(C(=O)Nc3cccnc3)cc1CO2	inconclusive [cytotoxic, single point]	–
